The molecules below were run against PRMT5/MEP50 Complex (Homo sapiens (Human), UniProt O14744) (assay: PRMT5 inhibition based on TR-FRET assay). Conditions: 32 nM PRMT5:MEP50, 50 nM Histone-H4 peptide, 1 μM SAM.
Format: biochemical
Text: PRMT5 Inhibition Based on TR-FRET Assay:
Protein arginine methyltransferase 5 (PRMT5) is a type II arginine methyltransferase that catalyze mono- and symmetric demethylation on arginine residues of histone or non-histone proteins in presence of S-adenosylmethionine (AdoMet or SAM) a cofactor responsible for donating the methyl group. PRMT5 is reported to be overexpressed in several human cancers. To identify compounds that inhibit the PRMT5 and decrease its activity, a TR-FRET based assay has been established. Time-resolved fluorescence resonance energy transfer (TR-FRET) HTS assays are homogeneous proximity assays where the interaction of two dye-labeled binding partners is detected by the energy transfer between a donor and an acceptor dye and the subsequent light emission by the acceptor dye. PRMT5 catalyzes Histone H4 peptide which is biotin tagged to the Lysine amino acid at carboxyl end, in presence of S-adenosyl-1-methionine (SAM) to methylate the peptide. The antibody specific to mono methylated H4 peptide (H4R3) with Ig conjugate binds to the methylated peptide, indirectly binding to the Europium lanthanide. SureLight Allophycocyanin-Streptavidin binds to the biotin tag of the peptide, therefore accepting the energy transferred from the Europium lanthanide. This energy transfer between Europium to SureLight Allophycocyanin is a direct measure of the activity/inhibition of the PRMT5 enzyme.
Assay buffer: 20 mM BICINE (pH 7.6), 25 mM NaCl, 2 mM DTT, 0.01% Tween-20 and 0.01% BSA.
The compound dilutions were prepared as 7.5% DMSO stock solutions in assay buffer. To 2 μL (7.5×) of test compound, 5 μL of PRMT5 enzyme prepared in assay buffer (Final concentration of 32 nM in 15 μL reaction volume) was added and allowed for 30 minutes pre-incubation time in a white polystyrene 384-well plate at room temperature. […] The plates were then read on Victor-3 with Excitation at 340 nm and Emissions collected at 615 and 665 nm in TR-FRET protocol. […]

UniProt O14744, sequence (O14744 whole entry): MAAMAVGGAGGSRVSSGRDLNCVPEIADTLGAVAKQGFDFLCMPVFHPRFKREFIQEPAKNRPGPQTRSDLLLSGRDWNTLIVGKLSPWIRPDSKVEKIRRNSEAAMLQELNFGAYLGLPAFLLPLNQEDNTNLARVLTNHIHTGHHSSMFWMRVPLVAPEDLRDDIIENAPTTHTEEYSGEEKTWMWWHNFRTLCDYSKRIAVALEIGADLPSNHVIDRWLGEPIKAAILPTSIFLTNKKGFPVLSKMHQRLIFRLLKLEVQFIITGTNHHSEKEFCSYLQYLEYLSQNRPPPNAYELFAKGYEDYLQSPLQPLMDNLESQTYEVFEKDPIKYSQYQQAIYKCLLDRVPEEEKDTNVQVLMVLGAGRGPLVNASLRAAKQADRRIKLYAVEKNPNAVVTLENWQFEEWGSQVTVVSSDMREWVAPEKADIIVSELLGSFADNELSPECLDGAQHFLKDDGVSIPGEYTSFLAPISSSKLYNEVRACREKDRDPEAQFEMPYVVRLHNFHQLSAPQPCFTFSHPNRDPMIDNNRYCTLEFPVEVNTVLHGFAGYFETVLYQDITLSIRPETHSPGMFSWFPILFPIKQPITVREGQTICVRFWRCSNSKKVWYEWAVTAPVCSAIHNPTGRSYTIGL
UniProt O14744, sequence (Q9BQA1 whole entry partner): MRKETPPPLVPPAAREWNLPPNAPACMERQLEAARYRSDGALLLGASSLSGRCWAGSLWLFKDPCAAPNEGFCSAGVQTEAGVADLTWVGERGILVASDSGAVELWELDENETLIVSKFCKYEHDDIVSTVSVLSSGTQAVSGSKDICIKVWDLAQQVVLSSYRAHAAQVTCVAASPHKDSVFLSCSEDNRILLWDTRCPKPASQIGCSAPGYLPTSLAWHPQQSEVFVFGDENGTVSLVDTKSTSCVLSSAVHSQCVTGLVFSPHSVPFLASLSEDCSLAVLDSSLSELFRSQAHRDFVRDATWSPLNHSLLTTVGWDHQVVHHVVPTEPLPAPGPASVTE

| SMILES | IC50 |
| --- | --- |
| N#Cc1ccc(CN2CCN(CC(O)CN3CCc4ccccc4C3)C2=O)cn1 (stereo not drawn) [Example 21, 5-((3-(3-(3,4-dihydroisoquinolin-2(1H)-yl)-2-hydroxypropyl)-2-oxoimidazolidin-1-yl)methyl)picolinonitrile] | 0.25 µM |
| N#Cc1ccc(CN2CCN(CC(O)CN3CCc4ccccc4C3)C2=O)cc1 (single isomer, unassigned) [Example 18b, 4-((3-(3-(3,4-dihydroisoquinolin-2(1H)-yl)-2-hydroxypropyl)-2-oxoimidazolidin-1-yl)methyl)benzonitrile] | 1.48 µM |
| Cc1ccc(CN2CCN(CC(O)CN3CCc4ccccc4C3)C2=O)cn1 (stereo not drawn) [Example 19, 1-(3-(3,4-dihydroisoquinolin-2(1H)-yl)-2-hydroxypropyl)-3-((6-methylpyridin-3-yl)methyl)imidazolidin-2-one] | 0.31 µM |

From patent US11365205B2 (Aurigene Discovery Technologies Limited, priority 2018, dated 2022)
